Assay results taken from patent US9833497B2, “Human originated EGF domain proteins and use of the same” (CHENGDU SOURCEBIO LIMITED-LIABILITY COMPANY, priority 2013, dated 2017).

Assays:
Format in all cases: cell-based
E. coli BL21 = test: MIC against Gram-negative bacteria: E. coli BL21; details: for MIC: 10 h cultivation at 37° C.; for MIC against E. coli BL21: 96-well plate, 5×10^5 CFU/mL, 37° C., 10 h
Procedure: (§1) 1. Gram-negative bacteria, such as E. coli BL21, Pseudomonas aeruginosa, Klebsiella pneumonia, Enterobacter cloacae, Aeromonas hydrophila, Citrobacter diversus, Moraxella catarrhalis, Proteus mirabilis, Proteus vulgaris, Serratia marcescens, etc were streaked on solid LB medium and cultured respectively. Then, typical clones were picked, inoculated into common liquid LB medium respectively, and cultured at 37° C. with shaking at 185 rpm until the McFarland specific turbidity was 0.5. The bacterial culture of each of Gram-negative bacteria was centrifuged at 4000×g for 3 min, the supernatant was discarded, and the thalli were resuspended with fresh LB medium.
(§2) 2. The above-mentioned bacterial suspensions were diluted and inoculated into 96-well plates with the final concentration of the bacterial suspension being 5×10^5 CFU/mL per well.
(§3) 3. Each of the purified human-originated EGF domain proteins (PRT1 to PRT1498 in Table 1) was added to each of the above wells and subjected to two-fold serial dilution in concentration. Three parallel wells were set up for each concentration in the gradient.
(§4) 4. The above-mentioned 96-well plates were placed and cultured at 37° C. in shaking incubator shaking at 175 rpm. […] The minimal inhibitory concentration MIC is defined as the lowest concentration of the recombinant protein at which there is no growth of the bacteria.

Aeromonas hydrophila = test: MIC against Gram-negative bacteria: Aeromonas hydrophila; details: for MIC: A. hydrophila, 10 h cultivation at 37° C.; for MIC against A. hydrophila: 96-well plate, 5×10^5 CFU/mL, 37° C., 10 h
Procedure: as §1, §2, §3, §4

Klebsiella pneumonia = test: MIC against Gram-negative bacteria: Klebsiella pneumonia; details: for MIC: K. pneumonia, 10 h cultivation at 37° C.; for MIC against K. pneumonia: 96-well plate, 5×10^5 CFU/mL, 37° C., 10 h
Procedure: as §1, §2, §3, §4

Serratia marcescens = test: MIC against Gram-negative bacteria: Serratia marcescens; details: for MIC: S. marcescens, 10 h cultivation at 37° C.; for MIC against S. marcescens: 96-well plate, 5×10^5 CFU/mL, 37° C., 10 h
Procedure: as §1, §2, §3, §4

Enterobacter cloacae = test: MIC against Gram-negative bacteria: Enterobacter cloacae; details: for MIC: E. cloacae, 10 h cultivation at 37° C.; for MIC against E. cloacae: 96-well plate, 5×10^5 CFU/mL, 37° C., 10 h
Procedure: as §1, §2, §3, §4

Proteus mirabilis = test: MIC against Gram-negative bacteria: Proteus mirabilis; details: for MIC: P. mirabilis, 10 h cultivation at 37° C.; for MIC against P. mirabilis: 96-well plate, 5×10^5 CFU/mL, 37° C., 10 h
Procedure: as §1, §2, §3, §4

Proteus vulgaris = test: MIC against Gram-negative bacteria: Proteus vulgaris; details: for MIC: P. vulgaris, 10 h cultivation at 37° C.; for MIC against P. vulgaris: 96-well plate, 5×10^5 CFU/mL, 37° C., 10 h
Procedure: as §1, §2, §3, §4

E. coli DH5α = test: Antibacterial activity: MIC and growth curve against E. coli DH5α in 96-well plate; details: minimal inhibitory concentration against E. coli DH5α, 5×10^5 CFU/mL, 37° C., judged after 8 h
Procedure: 1. E. coli DH5α was exemplified. E. coli DH5α was streaked and cultured on LB solid medium. Then, a typical clone was picked and inoculated into common LB liquid medium, cultured at 37° C. with shaking at 185 rpm until the logarithmic growth phase was reached (OD600 of about 0.5). The bacterial culture was centrifuged at 4000×g for 3 min, the supernatant was discarded, and the thalli were resuspended with fresh LB medium.
2. The above-mentioned bacterial suspension was diluted and inoculated into a 96-well plate with the total volume of 100 μL per well and a bacterial count of 5×10^5 CFU/mL.
3. The recombinant protein hF VII-EGF1 was added to the above-mentioned wells with the final protein concentration in the well of the highest protein concentration being 50 μg/mL. Basing on this final concentration, a two-fold serial dilution was performed till a protein concentration gradient consisting of 50, 25, and 12.5 μg/mL was set up. Three parallel wells were set up for each concentration in the gradient.
as §4, with “plate was” for “plates were”, “rpm. Samples were taken every 30 min, the absorbance values were determined at 600 nm wavelength under a ultra violet spectrophotometer, and an inhibition curve was plotted.” for “rpm.”
According to the experimental procedures in Example 14, the minimal inhibitory concentrations (MIC, μg/mL) of the other human-originated EGF domain proteins (PRT2 to PRT1498 in Table 1) for E. coli DH5α were determined.

Pseudomonas aeruginosa = test: MIC against Gram-negative bacteria: Pseudomonas aeruginosa; details: for MIC: P. aeruginosa, 10 h cultivation at 37° C.; for MIC against P. aeruginosa: 96-well plate, 5×10^5 CFU/mL, 37° C., 10 h
Procedure: as §1, §2, §3, §4

Citrobacter diversus = test: MIC against Gram-negative bacteria: Citrobacter diversus; details: for MIC: C. diversus, 10 h cultivation at 37° C.; for MIC against C. diversus: 96-well plate, 5×10^5 CFU/mL, 37° C., 10 h
Procedure: as §1, §2, §3, §4

Moraxella catarrhalis = test: MIC against Gram-negative bacteria: Moraxella catarrhalis; details: for MIC: M. catarrhalis, 10 h cultivation at 37° C.; for MIC against M. catarrhalis: 96-well plate, 5×10^5 CFU/mL, 37° C., 10 h
Procedure: as §1, §2, §3, §4

Substance | MIC (E. coli BL21; E. coli BL21) | MIC (Aeromonas hydrophila) | MIC (Klebsiella pneumonia) | MIC (Serratia marcescens) | MIC (Enterobacter cloacae) | MIC (Proteus mirabilis) | MIC (Proteus vulgaris) | MIC (E. coli DH5α) | MIC (Pseudomonas aeruginosa) | MIC (Citrobacter diversus) | MIC (Moraxella catarrhalis) | other results
PRT1010 (EIDPCHSQPCFHGGTCEATAGSPLGFICHCPKGFEGPTCS; listed as Homo sapiens) | 12.5 µg/mL | 12.5 µg/mL | 12.5 µg/mL | 50 µg/mL | 50 µg/mL | 12.5 µg/mL | 25 µg/mL | 50 µg/mL | 50 µg/mL | 50 µg/mL | 25 µg/mL | –
PRT511 (CQCNGHSSLCDPETSICQNCQHHTAGDFCERCALGYYGIVKGLPNDCQQ; listed as Homo sapiens) | – | – | – | – | – | – | – | 50 µg/mL | – | – | – | MIC against E. coli BL21 (E. coli BL21): 12.5 µg/mL; MIC against A. hydrophila (Aeromonas hydrophila): 12.5 µg/mL; MIC against K. pneumonia (Klebsiella pneumonia): 12.5 µg/mL; MIC against S. marcescens (Serratia marcescens): 25 µg/mL; MIC against E. cloacae (Enterobacter cloacae): 50 µg/mL; MIC against P. mirabilis (Proteus mirabilis): 25 µg/mL; MIC against P. vulgaris (Proteus vulgaris): 12.5 µg/mL; MIC against P. aeruginosa (Pseudomonas aeruginosa): 50 µg/mL; MIC against C. diversus (Citrobacter diversus): 25 µg/mL; MIC against M. catarrhalis (Moraxella catarrhalis): 50 µg/mL
PRT993 (DLDECLMAQQGPSPCEHGGSCLNTPGSFNCLCPPGYTGSRCE; listed as Homo sapiens) | 50 µg/mL | 50 µg/mL | 50 µg/mL | 12.5 µg/mL | 12.5 µg/mL | 12.5 µg/mL | 50 µg/mL | 12.5 µg/mL | 12.5 µg/mL | 12.5 µg/mL | 50 µg/mL | –
PRT940 (NINECTESSCFNGGTCVDGINSFSCLCPVGFTGSFCL; listed as Homo sapiens) | 12.5 µg/mL | 50 µg/mL | 12.5 µg/mL | 12.5 µg/mL | 12.5 µg/mL | 12.5 µg/mL | 50 µg/mL | 12.5 µg/mL | 25 µg/mL | 12.5 µg/mL | 50 µg/mL | –
PRT1255 (DIDECENDYYNGGCVHECINIPGNYRCTCFDGFMLAHDGHNCL; listed as Homo sapiens) | – | – | – | – | – | – | – | 12.5 µg/mL | – | – | – | MIC against E. coli BL21 (E. coli BL21; E. coli BL21): 50 µg/mL; MIC against A. hydrophila (Aeromonas hydrophila; Aeromonas hydrophila): 50 µg/mL; MIC against K. pneumonia (Klebsiella pneumonia; Klebsiella pneumonia): 12.5 µg/mL; MIC against S. marcescens (Serratia marcescens; Serratia marcescens): 12.5 µg/mL; MIC against E. cloacae (Enterobacter cloacae; Enterobacter cloacae): 25 µg/mL; MIC against P. mirabilis (Proteus mirabilis; Proteus mirabilis): 50 µg/mL; MIC against P. vulgaris (Proteus vulgaris; Proteus vulgaris): 25 µg/mL; MIC against P. aeruginosa (Pseudomonas aeruginosa; Pseudomonas aeruginosa): 25 µg/mL; MIC against C. diversus (Citrobacter diversus; Citrobacter diversus): 12.5 µg/mL; MIC against M. catarrhalis (Moraxella catarrhalis; Moraxella catarrhalis): 25 µg/mL
